Reference: the RNAGym collection of RNA variant scans (doi:10.7554/elife.90254)
Read counts are not given, so values of variants with three or more changes are uncertain.

B1: LINE1-mini (parent)
chain: GGCAGAGCUCAACACAGCGUGGCAAAGUGGCUGUGGCUAGACUGCC

Variants of: B1
Assay: self-cleavage, relative activity (ratio to wild type); higher = more cleavage; in vitro, sequencing; the parent is a self-cleaving ribozyme

| Variant | self-cleavage |
| --- | --- |
| GGCAGGGGUCAACACAGCGUUGCAAAGUGGCUGUGGCUAGACUGCC [A6G C8G G21U] | 0.04 |
| GGGAGAGCUCAACACAGCGUGGCAAAGUGCCUGUGACUAGACUGCC [C3G G30C G36A] | 0.1 |
| GGCGGCGCCAAACACAGCGUGGCAAAGUGGCUGUGGCUAUACUGCC [A4G A6C U9C C10A G40U] | 0.21 |
| UGCAGAACUCAACACAGCGUGGCAGAGUGGCGGUGGCUAGCCUGCC [G1U G7A A25G U32G A41C] | 0.03 |
| UGCAGAGCUCAACACAGCUUGGCCACGUGGCUGUGGCUAGACUGCC [G1U G19U A24C A26C] | 0.07 |
| GGCAGAGCUCAACACAGCGGGGCAAAGUGGCUGUAGCUAGCCUGCC [U20G G35A A41C] | 0.01 |
| GGCAGAGCUUAACACAGCGUGGCAAAGUCGCUGUGGCUAGACUUCC [C10U G29C G44U] | 0.07 |
| GGCAGAGUUCAACACAGCGUGGAAAAUUGGCUGUGGCUAGACUGCC [C8U C23A G27U] | 0.12 |
| GGGAGAGCUCAACACAGAGUGACAAAGUCGCUGAGGCUAGACUGCC [C3G C18A G22A G29C U34A] | 0.05 |
| GGCAGAGCAUAACACAGCGUGCCAAAGUGGCUGUGGCUUGACUGCG [U9A C10U G22C A39U C46G] | 0.04 |
| GGCAGGGCUCAAAACAACGUGGGAAAGUGGUUGUGGCUAGAAUGCC [A6G C13A G17A C23G C31U C42A] | 0.02 |
| GGCAGCGCUGAACACACCGUGGUAAAGUGGCUGUGGCUAGACUGCC [A6C C10G G17C C23U] | 0.05 |
| GGCAGAUCUCAAGACUGCGUGGCAAAGUGGCUGUGGGUAGUCUGCC [G7U C13G A16U C37G A41U] | 0.04 |
| GGCAGGGCUCAACACAGCAUGGAAAAGUGACUGUGGCUAGACUGCC [A6G G19A C23A G30A] | 0.04 |
| GGCAAAGGUCAACACAGCGAGGCAGAGUGGCUUUUGCUAGACUGCC [G5A C8G U20A A25G G33U G35U] | 0.02 |
| UGCAGAGCUAAACACAGCGUGGCAAAGUGGCUGUGGCUAGACUGAC [G1U C10A C45A] | 0.01 |
| GGCAGAGGUCAACACAGCUUGGCAAAGUUGCUGUGGCUAGACUGCC [C8G G19U G29U] | 0.03 |
| GGCAGAGCUCAACCCUGCGUUGCAAAGUGGCUGUGGCUAGACUGCA [A14C A16U G21U C46A] | 0.08 |
| GGCAGAGCUGAACACAGCGUGGCAAACUGGCUGAGGCUAGACUGUC [C10G G27C U34A C45U] | 0.02 |

| Variant | self-cleavage |
| --- | --- |
| GGCAGAGCUCUACACAGCGUGGAAAAGUGGCUAUGGCUAGACUGCC [A11U C23A G33A] | 0.01 |
| GGCAGAGCUCAACACAGCGGGGCAAAUUGGCUGAGGCUAGACUGCU [U20G G27U U34A C46U] | 0.03 |
| GGCAGAGCUCAACACAGCGUGACAAAGCGCCUGUGGCUAGACUGCC [G22A U28C G30C] | 1.6 |
| GGCAGACCUCAAAACAGCGUGGCAAGGUACUUGUGGCUAGACUGCC [G7C C13A A26G G29A G30C C31U] | 0.03 |
| AUCAGAGCUCAACACAGCGUCGCACAGUAGCGGUGGCUAGACUGUC [G1A G2U G21C A25C G29A U32G C45U] | 0.11 |
| GGCAGAGCUCUACACAGCGUGGCAAAUUGGCUGUGGCUAGACUACC [A11U G27U G44A] | 0.04 |
| GGAAGAGCUCAACACAGCGUGGCCCAGUGGCUGUGGCUAGACUGCC [C3A A24C A25C] | 0.15 |
| GACAGGGCUCAAUACAGAGUGGCAAAGUGGCUGUGGCUAGACUGCC [G2A A6G C13U C18A] | 0.14 |
| GGCAGAGCUCAACACAGCGUGGCAAAGUGGCCGCGGCUAGACUGUC [U32C U34C C45U] | 0.02 |
| GGCCGAGCUCAACACAACGUGGCAAAGUGGCUGUGGCUAUACUGCC [A4C G17A G40U] | 0.09 |
| GGCAUAGCUCAACACAGCGUGGCACAGUGGCUGUGUCUGGACUGCC [G5U A25C G36U A39G] | 0.01 |
| GGCAGAGCUCAACACAGCGUGGCAAAGUGGCUGGGGAUAGGCUGCC [U34G C37A A41G] | 0.09 |
| CCCAGAGCUCAACACAGCGUGGCAAAGUGGCUGUCGCCAGACUGCC [G1C G2C G35C U38C] | 0.01 |
| GGCAGAGCUCAACAUAUCCUGGCAAAGUGGGUGUGGCUAGACUGAC [C15U G17U G19C C31G C45A] | 0.08 |
| GGCAGAGCUCAACACCACGUGGCAAAGUUGCUGUGGCUAGACUGCC [A16C G17A G29U] | 0.12 |
| GGCAGGGUUCAACACAGCGUGGCAAAGUGGCUGUGCCUAGACUGCA [A6G C8U G36C C46A] | 0.67 |
| GGCAGAGGUCAACACAGCGUGGUUAAGUGGCUGUGGGUAGACUGCC [C8G C23U A24U C37G] | 0.06 |
| GGCAGUGCUCAACACAGCGUGGCAAAAUUGCUGUGGCUAGACUGCC [A6U G27A G29U] | 0.39 |
| GGCAGAGCUCAACACAGCGUGGCAAAGUGCUUGUGGUUAAACUUCC [G30C C31U C37U G40A G44U] | 0.01 |

| Variant | self-cleavage |
| --- | --- |
| GGCAGAUCUCAACACAGCGUGGCAAAGUGGCUGUGGAUAGGCUGCC [G7U C37A A41G] | 0.03 |
| GUCAGAGCUCAACACAGCGUGGCUAAGUGGCUGUCGCUAGACUGCC [G2U A24U G35C] | 0.06 |
| GGCAGAGCUCAACACGGUGUGGCAAAGUUGCUGUGGCUAGACUUCC [A16G C18U G29U G44U] | 0.02 |
| GGCACAGCUCAACAAAGCGUGGGAAAGUAGCUGGGGCUAGACUGCC [G5C C15A C23G G29A U34G] | 0.07 |
| GGCAGUUCUCAACACAGCGUAGCAAAGUGGCUCUGGCUAGACUGCC [A6U G7U G21A G33C] | 0.08 |
| GGGAGAGCUCAACAGAGCGGGGCAAAGUGGCUGUGGCUAGACUGCC [C3G C15G U20G] | 0.04 |
| GGCAUAGCUCAACACAGCUUGGCAACGUGGCUGUGGCUAGACUGCU [G5U G19U A26C C46U] | 0.03 |
| GGCAGAGCUCAACACAGCGUGGCUAAGUGGCUGUGGCUUUACUGCC [A24U A39U G40U] | 0.12 |
| GGCAGAGGCCAACACAGCGUGGCAAAGUGGCUAUGGCUAGACUGCC [C8G U9C G33A] | 0.01 |
| GACAGAGCUCGACACAGCGUGGCAAAGUGGCGGUGGCUACACUGCC [G2A A11G U32G G40C] | 0.02 |
| GGGAGAGCUCAACUCAGCGUGGCGAAGUGGCUGUAGCUAGAAUGCC [C3G A14U A24G G35A C42A] | 0.18 |
| GGAAUAGUUCAUCACAGCGUGGCAAAGUGGCUGUGGCUAGACCGCC [C3A G5U C8U A12U U43C] | 0.06 |
| GGCAGAGCUCAACACAGCGAGGCAAAGUUGCUCUGGCUAGACUGCC [U20A G29U G33C] | 0.03 |
| GGCAGACCUCAACUCAGCGUGGCAAAGUGGCUUUGGAUAGACUGUC [G7C A14U G33U C37A C45U] | 0.06 |
| GGCAGAGCUCAACACAGAGUGGCAAAGUGGCUGUGGUUAGACCGCC [C18A C37U U43C] | 0.06 |
| GGCAGAUUUGAACACAGCGUGGCAAAGUGGCUGUGGCUAGACUGCC [G7U C8U C10G] | 0.02 |
| GACAGAGCUCAACACAGUGUGGCAAAGUGGCUGUCGCUAGACUGCC [G2A C18U G35C] | 0.16 |
| GGCAGAGCUCAAUACAUCGUGGCAAAGUGGCUGUGGCUAGAGUGCC [C13U G17U C42G] | 0.09 |
